Screen size: about 310,000 compounds; about 2,200 (0.71%) showed an effect of 50% or more. The effect is printed as a negative number. Some of the results follow.
Target: human ether-à-go-go-related gene (hERG) potassium channel (human, UniProt Q12809)
Assay: primary screen, population patch clamp on CHO cells stably expressing hERG

Sequence of human ether-à-go-go-related gene (hERG) potassium channel (Q12809 whole entry, looked up): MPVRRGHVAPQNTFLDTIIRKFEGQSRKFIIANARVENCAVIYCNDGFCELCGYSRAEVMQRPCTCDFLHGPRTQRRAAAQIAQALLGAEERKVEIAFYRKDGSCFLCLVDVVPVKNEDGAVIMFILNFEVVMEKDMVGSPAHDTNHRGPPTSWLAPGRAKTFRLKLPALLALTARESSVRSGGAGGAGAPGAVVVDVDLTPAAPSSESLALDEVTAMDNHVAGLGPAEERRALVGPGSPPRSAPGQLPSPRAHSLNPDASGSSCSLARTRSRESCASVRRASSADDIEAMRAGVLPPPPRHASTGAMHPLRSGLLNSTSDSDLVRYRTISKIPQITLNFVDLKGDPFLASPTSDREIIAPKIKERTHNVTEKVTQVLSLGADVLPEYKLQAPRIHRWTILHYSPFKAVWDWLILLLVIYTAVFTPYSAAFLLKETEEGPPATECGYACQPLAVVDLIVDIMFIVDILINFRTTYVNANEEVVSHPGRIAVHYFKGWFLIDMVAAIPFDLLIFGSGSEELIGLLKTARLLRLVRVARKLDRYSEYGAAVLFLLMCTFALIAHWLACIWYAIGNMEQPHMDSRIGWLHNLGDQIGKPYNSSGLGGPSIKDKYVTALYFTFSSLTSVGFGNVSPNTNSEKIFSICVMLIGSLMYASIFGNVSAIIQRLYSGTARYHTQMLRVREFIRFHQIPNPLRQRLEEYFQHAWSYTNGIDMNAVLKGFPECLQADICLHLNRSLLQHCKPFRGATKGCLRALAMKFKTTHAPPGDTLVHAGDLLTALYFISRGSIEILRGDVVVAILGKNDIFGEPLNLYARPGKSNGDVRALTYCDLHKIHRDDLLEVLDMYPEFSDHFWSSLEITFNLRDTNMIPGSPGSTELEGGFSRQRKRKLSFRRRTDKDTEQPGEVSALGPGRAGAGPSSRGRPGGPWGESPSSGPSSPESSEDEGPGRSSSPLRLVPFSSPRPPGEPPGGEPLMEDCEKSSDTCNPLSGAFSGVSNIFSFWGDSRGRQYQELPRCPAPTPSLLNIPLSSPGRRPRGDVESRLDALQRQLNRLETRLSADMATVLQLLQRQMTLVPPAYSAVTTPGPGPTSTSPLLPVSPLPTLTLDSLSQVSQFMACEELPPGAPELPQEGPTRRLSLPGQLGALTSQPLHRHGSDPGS

Structure (SMILES)	hERG current change (%, negative = inhibition) at 1uM
c1ccc(-c2nnc(CSc3nc4ccccc4[nH]3)o2)cc1	-14.2%
CN(C)S(=O)(=O)c1ccc(C(=O)OCc2ccc(C#N)cc2)cc1	1.99%
CN(c1cccc(NC(=O)CN(c2ccc(C34CC5CC(CC(C5)C3)C4)cc2)S(C)(=O)=O)c1)S(C)(=O)=O	11.1%
CCOc1cc2c(cc1OCC)-n1cccc1C(c1c(O)cccc1OC)NC2.Cl (stereo not drawn)	-2.28%
CC(=O)c1c(C)[nH]c(C(=O)OC(C)C(=O)Nc2cc(S(=O)(=O)N3CCCCC3)ccc2Cl)c1C (stereo not drawn)	-9.02%
CCCCn1c(SCC(=O)Nc2cc(C)on2)nnc1-c1cccs1	0.964%
COc1ccc(S(=O)(=O)NC(C)C(=O)N2CCCCCC2)cc1 (stereo not drawn)	2.64%
CC(=O)O.CC1=CC(C)C(/C=N/N=C(N)N)C(C)C1 (stereo not drawn)	4.96%
CC(C)CN(C(=O)COC(=O)C12CC3CC(CC(Cl)(C3)C1)C2)c1c(N)n(Cc2ccccc2)c(=O)[nH]c1=O	12%
Cc1ccccc1NC(=O)Nc1ccccn1	17%
Cc1cc2cc3c(cc2nc1SCC(=O)N1c2ccccc2CC1C)OCO3 (stereo not drawn)	5.76%
O=C(O)C1CCCCC1C(=O)Nc1cccc(Cl)c1Cl (stereo not drawn)	12.3%
COc1cc(NC(=O)c2ccc(N3CC4CC(C3)c3cccc(=O)n3C4)c(NC(=O)c3ccncc3)c2)cc(OC)c1OC (stereo not drawn)	17.6%
Cc1ccc(SCc2ccc(C(=O)Nc3cc([N+](=O)[O-])ccc3C)cc2)cc1	14.9%
COCCn1c(SCC(=O)Nc2ccccc2)nc2c(oc3ccccc32)c1=O	-3.56%
Cc1occc1C(=O)N1CCN(Cc2ccccc2)CC1	-3.57%
CCC(COC)Oc1cc(NCc2ccccc2)c2ncn(C(C)C)c2c1 (stereo not drawn)	11.4%
CC(C)CNC(=O)C(=O)NCC1CCCN1S(=O)(=O)c1cccs1 (stereo not drawn)	12%
Cc1ccc(NS(=O)(=O)c2c(C)ccc3nsnc23)c([N+](=O)[O-])c1	12.6%
O=C(OCc1cc2ccccc2[nH]c1=O)c1ccccn1	7.49%
CCOC(=O)C1(CCc2ccccc2)CCN(C2CCSCC2)CC1	-80.7%
COc1ccc2c(c1OC)C(=O)N1C2SC[C@H]1C(=O)NCCC(C)C (stereo partly drawn)	9.05%

Structure (SMILES)	hERG current change (%, negative = inhibition) at 1uM
Nc1ccc(S(=O)C(F)(F)F)cc1 (stereo not drawn)	11.1%
COc1cccc(C(=O)NC(C)c2ccc(-c3ccccc3)cc2)c1OC (stereo not drawn)	14.3%
O=C(CCC(=O)N1CCCC1)Nc1ccc([N+](=O)[O-])cc1	1.29%
Cc1ccc(N(C=NC#N)CC(=O)N2CCN(c3ccccc3)CC2)cc1	-19.8%
COc1ccc(-c2ccc3oc(-c4ccsc4)cc3c2)cc1	20.8%
CC(C)N1C(=O)N(c2ccccc2)C(C)(O)CC1(C)C (stereo not drawn)	4.66%
CC1CC(=O)C2=C(C1)Nc1ncnn1C2c1ccccc1 (stereo not drawn)	18%
CS(=O)(=O)N1CCN(c2ccc([N+](=O)[O-])c(NCc3cccnc3)c2)CC1	13.7%
CC(C)c1ccccc1NC(=O)COC(=O)CCN1C(=O)/C(=C\C=C\c2ccccc2)SC1=S	14%
COc1cccc(CN(C)C(=O)c2ccccc2SCC(=O)N2CCCC2)c1	-2.07%
Cc1ccc(S(=O)(=O)Cn2nnnc2C(C(C)C)N2CCSCC2)cc1 (stereo not drawn)	5.51%
O=C(c1ccco1)N(Cc1cccc(F)c1)C1CCS(=O)(=O)C1 (stereo not drawn)	10.4%
CCCCc1noc(-c2c(-c3ccccc3Cl)noc2C)n1	-1.51%
CCNC(=S)NNC(=O)CCn1c2ccccc2c2ccccc21	4.69%
Cc1coc2cc3oc(=O)c(CCC(=O)NCc4ccccn4)c(C)c3cc12	9.61%
CCOC(=O)N1CCc2c(sc3c2c(=O)n(Cc2ccccc2)c(=O)n3Cc2ccc(C)cc2)C1	17.8%
O=C1C=C(c2ccc3ncccc3c2)C[C@@H](c2ccc3c(c2)OCO3)C1	9.3%
CC1=NN(C(C#N)c2ccc(F)cc2)C(C)(C)C1 (stereo not drawn)	5.53%
Cc1cccc(N2C(=O)C(Oc3ccc(Cl)cc3Cl)C2C(=O)O)c1C (stereo not drawn)	13.4%
Cn1c(O)c(/C=N/c2ccccn2)c(=O)n(C)c1=O	11.1%
CCOC(=O)Cn1nc(C)c(NC(=O)COc2ccc(C)c(C)c2)c1C	11.8%
CCCCOc1ccc(Cc2cnc(N)nc2N)cc1	12.5%

Structure (SMILES)	hERG current change (%, negative = inhibition) at 1uM
Cn1c2c(c(=O)n(C)c1=O)CN(CCCN1CCOCC1)CN2	0.514%
CCN(Cc1ccccc1)C(=O)C1CCN(S(=O)(=O)c2ccc3c(c2)OCCO3)CC1	12.8%
CCn1c(=O)n(CC)c2cc(N3CCCC3)c(NC(=O)c3cc(Br)ccc3OC)cc21	1.29%
CC1(C)CC(=O)C2=C(C1)N(CCN1CCOCC1)C1=C(C(=O)CC(C)(C)C1)C2c1ccc(Cl)cc1	-0.278%
O=C1CC(C(=O)Nc2ccc(C(=O)N3CCOCC3)cc2)C2(CCCCC2)O1 (stereo not drawn)	7.01%
Cc1ccc2nc(SCC(=O)Nc3ncccn3)[nH]c2c1	9.56%
Cc1cccc(NC(=O)CSc2nnc([C@@H]3CCCN3C(=O)OC(C)(C)C)o2)c1C	5.41%
CC(=O)c1cccc(NC(=O)CCn2c(=O)oc3ccccc32)c1	0.785%
Cn1c(SCC(=O)NCc2ccc3c(c2)OCO3)nnc1-c1c[nH]c2ccccc12	-10.1%
CCN(CC)CC#CCC(OC)(c1ccccc1)c1ccccc1.Cl	8.5%
CCOC(=O)c1oc2ccccc2c1NC(=O)COc1ccc(F)cc1	12.4%
COC(=O)c1c(NC(=O)c2ccc(N(C)S(=O)(=O)c3ccc(C)cc3)cc2)sc2c1CCCC2	11.2%
CC(=O)Nc1cccc(NC(=O)c2cccc(S(=O)(=O)N3CCN(Cc4ccccc4)CC3)c2)c1	13.8%
COc1ccc(CC(=O)Nc2cc(S(=O)(=O)N3CCCCC3)ccc2C)cc1OC	13.5%
O=C(NCC1CCCO1)c1cccc(NS(=O)(=O)c2ccc(Br)cc2)c1 (stereo not drawn)	13%
N=C1C(c2ccccc2)=C(O)CN1c1cccc2ccccc12	7.25%
O=S(=O)(Nc1nc(-c2sccc2Cl)cs1)c1cc(Cl)ccc1Cl	14.2%
COc1ccc(CCN(C)c2ncnc3sccc23)cc1OC	13.8%
Cc1nc(NS(=O)(=O)c2ccc(Cl)s2)c2c3c(sc2n1)CCCC3	9.59%
Cc1ccn(C(=O)c2ccc(NC(=O)CC(C)C)cc2)n1	1.23%
CCC(=O)NC(=S)Nc1cccc(-c2nc3ncccc3o2)c1	19.8%
Cc1cc(C(=O)Nc2ccc(N3CCCCC3)cc2)no1	13.4%

Structure (SMILES)	hERG current change (%, negative = inhibition) at 1uM
S=C1SCN(Cc2ccccn2)CN1Cc1ccco1	6.34%
CCCc1nn(C)c2c(=O)[nH]c(-c3cc(S(=O)(=O)N(CCO)CCO)ccc3OCC)nc12	7.71%
COCc1ccc(C(=O)N2CCCC(Nc3ccc(F)c(F)c3)C2)s1 (stereo not drawn)	16.2%
COC(=O)c1ccc(/C=C/C(=O)c2cccc(OC)c2)cc1	11.1%
COc1ccc(N2CCN(Cc3nc4c(c(=O)n(C)c(=O)n4C)n3C(C)C(C)=O)CC2)cc1 (stereo not drawn)	-8.36%
Cn1c(=O)c2c(nc(SCCN3CCOCC3)n2Cc2ccccc2Cl)n(C)c1=O	-8.97%
COc1cc(CC(=O)Nc2ccccc2N2CCOCC2)cc(OC)c1OC	7.5%
COc1ccc(CN(C(=O)c2ccc(C)cc2)c2cccc(N)c2)cc1	7.6%
CC12CC3(C)CC(C)(C1)CC(C(=O)NC(=S)N1CCCC1)(C2)C3	14.4%
Cc1ccc(S(=O)(=O)c2c(CO)c(-c3ccccc3)nn2C)cc1	-2.57%
CCOc1ccc(CCNC(=O)Cc2nn[nH]n2)cc1OCC	10.1%
CN(C(=O)COC(=O)c1ccc2ccccc2n1)C1CCS(=O)(=O)C1 (stereo not drawn)	14.7%
C[C@H](NC(=O)C1(c2ccccc2)CCN(C(=O)OC(C)(C)C)CC1)C(=O)N[C@@H](C(=O)O)c1ccccc1	3.36%
CSc1ccccc1NC(=O)Cc1ccccc1[N+](=O)[O-]	13.1%
CCOCCCNC(=O)c1cc(Cl)c(NC(=O)C2=C(C)OCCS2)cc1OC	5.85%
Cc1ccc(S(=O)(=O)c2nc(C)oc2N2CCOCC2)cc1	10.3%
CN1CCCN(Cc2cccc3ccccc23)CC1	15.4%
CC(=O)c1c(C)[nH]c(C(=O)OCc2ccc(F)cc2Cl)c1C	10.6%
Cc1cc2nc3n(c2cc1C)CC1CC(C(=O)NCCc2cccs2)N(C)C31 (stereo not drawn)	-21.2%
COCC(=O)N1CCC(n2nnc3cc(C(F)(F)F)ccc32)CC1	1.88%
COc1ccc(CNC(=O)c2ccc(C(C)(C)C)cc2)cc1	17.7%

Reference: publication PMC4336329 (PLoS ONE, 2015)
